According to PMC5876348:
Results are given in words; binding and its absence hold for the method and conditions named. For some assays here: Binding seen in cells or lysates may run through a third protein. Some binding calls cover weakened binding; strength is not graded here. For some assays here: Sequences can lack the tags named with a protein. Values belong to the molecule of their own block, whether it stands above or below them.

Protein sequences, listed by entry. Tags and fused reporters are not part of them. Lines headed by an entry give the natural chain unless they say otherwise; changes in a name come on top. Chains listed by the source or under a name are the forms on record and can include a tag or linker. Residues count along the entry.
UniProt Q9Y294: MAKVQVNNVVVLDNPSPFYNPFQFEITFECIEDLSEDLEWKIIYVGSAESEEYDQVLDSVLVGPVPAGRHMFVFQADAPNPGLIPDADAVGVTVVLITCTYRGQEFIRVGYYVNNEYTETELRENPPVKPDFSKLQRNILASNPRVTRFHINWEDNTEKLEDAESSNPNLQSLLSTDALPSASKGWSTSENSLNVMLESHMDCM
FLAG-tagged ASF1A, first 30 amino acids of the N terminus (HeLa cells, Fig. 1g): residues 1-30 of Q9Y294
UniProt Q9NVP2: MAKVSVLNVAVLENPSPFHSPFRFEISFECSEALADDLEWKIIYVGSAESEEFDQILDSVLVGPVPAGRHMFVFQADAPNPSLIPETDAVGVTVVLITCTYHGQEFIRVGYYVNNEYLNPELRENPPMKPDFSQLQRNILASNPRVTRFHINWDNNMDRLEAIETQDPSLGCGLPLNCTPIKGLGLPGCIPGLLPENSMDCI

How the values were obtained:
[1] = molecular target: T1, FLAG-GFP tagged full length USP52 (in HeLa cells) (human) (UniProt Q504Q3); assay: co-IP; cellular lysates from HeLa cells expressing FLAG-GFP tagged full length or deletions of USP52, or FLAG-tagged full length or deletions of ASF1A
T1 sequence: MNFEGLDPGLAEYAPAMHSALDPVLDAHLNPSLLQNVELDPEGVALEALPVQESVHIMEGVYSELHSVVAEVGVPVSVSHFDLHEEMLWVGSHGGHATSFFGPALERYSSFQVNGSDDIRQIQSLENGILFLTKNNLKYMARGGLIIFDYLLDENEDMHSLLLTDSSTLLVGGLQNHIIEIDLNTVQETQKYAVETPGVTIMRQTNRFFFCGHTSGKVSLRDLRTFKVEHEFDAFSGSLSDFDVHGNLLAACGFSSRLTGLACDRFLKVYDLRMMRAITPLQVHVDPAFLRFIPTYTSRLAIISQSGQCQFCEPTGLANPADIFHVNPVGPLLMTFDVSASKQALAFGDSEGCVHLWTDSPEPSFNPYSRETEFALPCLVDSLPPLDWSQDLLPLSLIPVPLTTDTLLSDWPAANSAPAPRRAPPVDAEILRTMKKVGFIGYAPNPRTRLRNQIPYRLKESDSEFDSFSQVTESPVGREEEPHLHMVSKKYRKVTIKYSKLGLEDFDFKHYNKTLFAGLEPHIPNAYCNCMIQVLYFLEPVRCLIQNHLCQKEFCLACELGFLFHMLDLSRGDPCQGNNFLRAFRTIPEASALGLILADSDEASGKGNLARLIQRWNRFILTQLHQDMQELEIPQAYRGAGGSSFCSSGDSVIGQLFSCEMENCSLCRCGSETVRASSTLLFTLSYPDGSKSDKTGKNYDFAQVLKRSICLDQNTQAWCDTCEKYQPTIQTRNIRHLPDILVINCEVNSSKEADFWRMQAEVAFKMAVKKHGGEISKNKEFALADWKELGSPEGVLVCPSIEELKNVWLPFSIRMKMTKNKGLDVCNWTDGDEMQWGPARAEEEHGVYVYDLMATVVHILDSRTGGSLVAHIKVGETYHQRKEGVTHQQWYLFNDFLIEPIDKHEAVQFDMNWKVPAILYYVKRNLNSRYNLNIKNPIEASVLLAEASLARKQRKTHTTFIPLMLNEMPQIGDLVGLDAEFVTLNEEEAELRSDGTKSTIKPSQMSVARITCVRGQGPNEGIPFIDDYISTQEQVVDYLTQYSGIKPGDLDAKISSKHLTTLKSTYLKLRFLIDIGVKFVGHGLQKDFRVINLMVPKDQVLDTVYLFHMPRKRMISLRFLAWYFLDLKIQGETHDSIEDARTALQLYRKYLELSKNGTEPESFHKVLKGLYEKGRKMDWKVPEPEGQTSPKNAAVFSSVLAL

[2] = molecular target: T2, USP52 (endogenous) (human (endogenous in HeLa or MCF-7)) (UniProt Q504Q3); assay: co-IP; endogenous proteins, whole-cell lysates from HeLa or MCF-7 cells in NETN buffer (50 mM Tris-HCl pH 8.0, 150 mM NaCl, 0.2% Nonidet P-40, 2 mM EDTA), protein G magnetic beads, immunoblot; also HeLa cells released from double-thymidine block (association primarily in S phase)
T2 sequence: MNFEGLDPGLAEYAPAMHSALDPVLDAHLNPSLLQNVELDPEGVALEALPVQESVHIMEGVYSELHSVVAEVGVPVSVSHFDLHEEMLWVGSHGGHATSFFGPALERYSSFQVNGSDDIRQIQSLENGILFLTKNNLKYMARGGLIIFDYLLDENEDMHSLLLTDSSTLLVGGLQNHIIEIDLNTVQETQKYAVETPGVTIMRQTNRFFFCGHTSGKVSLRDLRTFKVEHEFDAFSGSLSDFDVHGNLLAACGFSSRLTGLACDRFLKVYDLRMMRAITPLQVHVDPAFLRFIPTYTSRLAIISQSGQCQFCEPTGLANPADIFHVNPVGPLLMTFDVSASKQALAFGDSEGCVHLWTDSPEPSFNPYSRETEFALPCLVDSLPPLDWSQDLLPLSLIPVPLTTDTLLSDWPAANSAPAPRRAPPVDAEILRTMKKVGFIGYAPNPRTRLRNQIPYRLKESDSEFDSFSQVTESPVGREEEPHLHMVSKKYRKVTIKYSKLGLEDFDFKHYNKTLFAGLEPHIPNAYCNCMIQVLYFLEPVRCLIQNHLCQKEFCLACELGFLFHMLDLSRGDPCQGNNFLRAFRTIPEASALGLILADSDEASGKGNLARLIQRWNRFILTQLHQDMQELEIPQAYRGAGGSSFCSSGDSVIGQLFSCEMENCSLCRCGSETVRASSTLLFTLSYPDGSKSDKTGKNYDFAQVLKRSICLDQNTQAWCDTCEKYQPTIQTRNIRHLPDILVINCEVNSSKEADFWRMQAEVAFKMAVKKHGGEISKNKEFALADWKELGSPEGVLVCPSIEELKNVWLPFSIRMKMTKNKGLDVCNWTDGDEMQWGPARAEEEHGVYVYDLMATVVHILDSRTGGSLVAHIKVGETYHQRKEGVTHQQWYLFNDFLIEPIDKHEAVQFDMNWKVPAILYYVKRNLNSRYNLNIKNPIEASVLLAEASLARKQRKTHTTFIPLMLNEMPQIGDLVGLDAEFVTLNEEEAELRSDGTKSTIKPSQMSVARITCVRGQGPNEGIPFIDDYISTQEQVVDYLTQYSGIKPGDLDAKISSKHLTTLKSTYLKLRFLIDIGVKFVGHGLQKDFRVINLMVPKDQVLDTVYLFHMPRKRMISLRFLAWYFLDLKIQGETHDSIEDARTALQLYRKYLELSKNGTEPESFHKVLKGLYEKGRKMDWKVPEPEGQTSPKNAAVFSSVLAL

[3] = molecular target: ASF1A (endogenous) (human (endogenous in HeLa or MCF-7)) (UniProt Q9Y294); assay: co-IP; cellular lysate of the nuclear compartment of MCF-7 cells
[4] = molecular target: ASF1A (endogenous) (human (endogenous in HeLa or MCF-7)) (UniProt Q9Y294); assay: co-IP; cellular lysate of the cytosolic compartment of MCF-7 cells
[5] = molecular target: FLAG-ASF1A (HeLa cells stably expressing) (UniProt Q9Y294); assay: co-IP; association of USP52 with wild-type ASF1A and K to R mutants stably expressed in HeLa cells (Supplementary Fig. 3e)
FLAG-ASF1A K129R = FLAG-ASF1A K129R (UniProt Q9Y294); assay: as above
FLAG-ASF1A K134R = FLAG-ASF1A K134R (UniProt Q9Y294); assay: as above
FLAG-ASF1A K159R = FLAG-ASF1A K159R (UniProt Q9Y294); assay: as above
FLAG-ASF1A K184R = FLAG-ASF1A K184R (UniProt Q9Y294); assay: as above
FLAG-ASF1A K3R = FLAG-ASF1A K3R (UniProt Q9Y294); assay: as above
FLAG-ASF1A K41R = FLAG-ASF1A K41R (UniProt Q9Y294); assay: as above
ASF1B (FLAG-tagged) = ASF1B (FLAG-tagged) (UniProt Q9NVP2); assay: co-IP; co-immunoprecipitation with FLAG-tagged Histone H3.1, Histone H3.3 or ASF1B (Supplementary Fig. 1a, 1b); cells not given
[6] = molecular target: FLAG-tagged ASF1A, first 30 amino acids of the N terminus (HeLa cells, Fig. 1g) (UniProt Q9Y294); assay: co-IP; cellular lysates from HeLa cells expressing FLAG-GFP tagged full length or deletions of USP52, or FLAG-tagged full length or deletions of ASF1A
[7] = molecular target: FLAG-tagged full length ASF1A (HeLa cells, Fig. 1g) (UniProt Q9Y294); assay: as above
[8] = molecular target: FLAG-ASF1A (HeLa cells stably expressing) (UniProt Q9Y294); assay: SEC; FLAG-ASF1A affinity eluate from HeLa cells stably expressing FLAG-ASF1A fractionated by FPLC on Superose 6 with high salt buffer; fractions immunoblotted
[9] = molecular target: ASF1A (endogenous) (human (endogenous in HeLa or MCF-7)) (UniProt Q9Y294); assay: co-IP; endogenous proteins, whole-cell lysates from HeLa or MCF-7 cells in NETN buffer (50 mM Tris-HCl pH 8.0, 150 mM NaCl, 0.2% Nonidet P-40, 2 mM EDTA), protein G magnetic beads, immunoblot; also HeLa cells released from double-thymidine block (association primarily in S phase)
[10] = molecular target: GST fusion ASF1A, full length (UniProt Q9Y294); assay: pull-down; in vitro pull-down (Supplementary Fig. 1c, 1d); format not shown; taken as GST fusion from bacteria with in vitro transcribed/translated partner; only the target purified

binding [1]: binds
binding [2]: binds
Molecule: ASF1A (endogenous) (from UniProt Q9Y294 1-204)

binding [4]: binds
binding [5]: binds
binding (FLAG-ASF1A K129R): binds
binding (FLAG-ASF1A K134R): binds
binding (FLAG-ASF1A K159R): binds
binding (FLAG-ASF1A K184R): binds
binding (FLAG-ASF1A K3R): binds
binding (FLAG-ASF1A K41R): binds
binding (ASF1B (FLAG-tagged)): no binding
binding [6]: binds
binding [7]: binds
binding [8]: binds
binding [9]: binds
B1: USP52 (endogenous) (enzyme, UniProt Q504Q3 1-1202)
chain: MNFEGLDPGLAEYAPAMHSALDPVLDAHLNPSLLQNVELDPEGVALEALPVQESVHIMEGVYSELHSVVAEVGVPVSVSHFDLHEEMLWVGSHGGHATSFFGPALERYSSFQVNGSDDIRQIQSLENGILFLTKNNLKYMARGGLIIFDYLLDENEDMHSLLLTDSSTLLVGGLQNHIIEIDLNTVQETQKYAVETPGVTIMRQTNRFFFCGHTSGKVSLRDLRTFKVEHEFDAFSGSLSDFDVHGNLLAACGFSSRLTGLACDRFLKVYDLRMMRAITPLQVHVDPAFLRFIPTYTSRLAIISQSGQCQFCEPTGLANPADIFHVNPVGPLLMTFDVSASKQALAFGDSEGCVHLWTDSPEPSFNPYSRETEFALPCLVDSLPPLDWSQDLLPLSLIPVPLTTDTLLSDWPAANSAPAPRRAPPVDAEILRTMKKVGFIGYAPNPRTRLRNQIPYRLKESDSEFDSFSQVTESPVGREEEPHLHMVSKKYRKVTIKYSKLGLEDFDFKHYNKTLFAGLEPHIPNAYCNCMIQVLYFLEPVRCLIQNHLCQKEFCLACELGFLFHMLDLSRGDPCQGNNFLRAFRTIPEASALGLILADSDEASGKGNLARLIQRWNRFILTQLHQDMQELEIPQAYRGAGGSSFCSSGDSVIGQLFSCEMENCSLCRCGSETVRASSTLLFTLSYPDGSKSDKTGKNYDFAQVLKRSICLDQNTQAWCDTCEKYQPTIQTRNIRHLPDILVINCEVNSSKEADFWRMQAEVAFKMAVKKHGGEISKNKEFALADWKELGSPEGVLVCPSIEELKNVWLPFSIRMKMTKNKGLDVCNWTDGDEMQWGPARAEEEHGVYVYDLMATVVHILDSRTGGSLVAHIKVGETYHQRKEGVTHQQWYLFNDFLIEPIDKHEAVQFDMNWKVPAILYYVKRNLNSRYNLNIKNPIEASVLLAEASLARKQRKTHTTFIPLMLNEMPQIGDLVGLDAEFVTLNEEEAELRSDGTKSTIKPSQMSVARITCVRGQGPNEGIPFIDDYISTQEQVVDYLTQYSGIKPGDLDAKISSKHLTTLKSTYLKLRFLIDIGVKFVGHGLQKDFRVINLMVPKDQVLDTVYLFHMPRKRMISLRFLAWYFLDLKIQGETHDSIEDARTALQLYRKYLELSKNGTEPESFHKVLKGLYEKGRKMDWKVPEPEGQTSPKNAAVFSSVLAL
binding [3]: no binding (condition: nuclear fraction of MCF-7 cells)

binding [10]: binds
B2: full-length USP52 (FLAG-GFP-tagged, in vitro transcription/translation) (enzyme, UniProt Q504Q3 1-1202)
chain: MNFEGLDPGLAEYAPAMHSALDPVLDAHLNPSLLQNVELDPEGVALEALPVQESVHIMEGVYSELHSVVAEVGVPVSVSHFDLHEEMLWVGSHGGHATSFFGPALERYSSFQVNGSDDIRQIQSLENGILFLTKNNLKYMARGGLIIFDYLLDENEDMHSLLLTDSSTLLVGGLQNHIIEIDLNTVQETQKYAVETPGVTIMRQTNRFFFCGHTSGKVSLRDLRTFKVEHEFDAFSGSLSDFDVHGNLLAACGFSSRLTGLACDRFLKVYDLRMMRAITPLQVHVDPAFLRFIPTYTSRLAIISQSGQCQFCEPTGLANPADIFHVNPVGPLLMTFDVSASKQALAFGDSEGCVHLWTDSPEPSFNPYSRETEFALPCLVDSLPPLDWSQDLLPLSLIPVPLTTDTLLSDWPAANSAPAPRRAPPVDAEILRTMKKVGFIGYAPNPRTRLRNQIPYRLKESDSEFDSFSQVTESPVGREEEPHLHMVSKKYRKVTIKYSKLGLEDFDFKHYNKTLFAGLEPHIPNAYCNCMIQVLYFLEPVRCLIQNHLCQKEFCLACELGFLFHMLDLSRGDPCQGNNFLRAFRTIPEASALGLILADSDEASGKGNLARLIQRWNRFILTQLHQDMQELEIPQAYRGAGGSSFCSSGDSVIGQLFSCEMENCSLCRCGSETVRASSTLLFTLSYPDGSKSDKTGKNYDFAQVLKRSICLDQNTQAWCDTCEKYQPTIQTRNIRHLPDILVINCEVNSSKEADFWRMQAEVAFKMAVKKHGGEISKNKEFALADWKELGSPEGVLVCPSIEELKNVWLPFSIRMKMTKNKGLDVCNWTDGDEMQWGPARAEEEHGVYVYDLMATVVHILDSRTGGSLVAHIKVGETYHQRKEGVTHQQWYLFNDFLIEPIDKHEAVQFDMNWKVPAILYYVKRNLNSRYNLNIKNPIEASVLLAEASLARKQRKTHTTFIPLMLNEMPQIGDLVGLDAEFVTLNEEEAELRSDGTKSTIKPSQMSVARITCVRGQGPNEGIPFIDDYISTQEQVVDYLTQYSGIKPGDLDAKISSKHLTTLKSTYLKLRFLIDIGVKFVGHGLQKDFRVINLMVPKDQVLDTVYLFHMPRKRMISLRFLAWYFLDLKIQGETHDSIEDARTALQLYRKYLELSKNGTEPESFHKVLKGLYEKGRKMDWKVPEPEGQTSPKNAAVFSSVLAL
